# Assay results taken from the BET-seq Pho4 binding data (Le et al. 2018).
# Some of the results follow. The energies were worked out here from pooled read counts, against the library average; single values are noisy.
# Target: T1, Pho4 (S. cerevisiae) (UniProt P07270)
# T1 sequence: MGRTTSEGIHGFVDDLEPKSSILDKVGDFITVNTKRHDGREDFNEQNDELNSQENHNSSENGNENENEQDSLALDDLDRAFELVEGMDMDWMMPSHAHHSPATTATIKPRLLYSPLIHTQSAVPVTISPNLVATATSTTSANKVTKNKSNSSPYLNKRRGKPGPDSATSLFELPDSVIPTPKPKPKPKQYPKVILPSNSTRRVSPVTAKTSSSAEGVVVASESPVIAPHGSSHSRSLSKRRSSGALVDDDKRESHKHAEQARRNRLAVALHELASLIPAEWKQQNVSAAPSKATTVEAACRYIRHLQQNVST
# Test: relative binding free energy (BET-seq); higher = weaker binding
# Settings: reference: library average
row,Sequence,relative binding free energy
1,GCGGGCACGTGAGATA,0.31 kcal/mol
2,TGATACACGTGGGTTC,0.02 kcal/mol
3,ATATTCACGTGCTTTA,0.12 kcal/mol
4,TTGCGCACGTGGGCTT,-0.28 kcal/mol
5,GGTTTCACGTGAAGAA,0.5 kcal/mol
6,AGTGGCACGTGTGAGC,0.06 kcal/mol
7,TTGTGCACGTGTCTAT,-0.08 kcal/mol
8,ATTAGCACGTGTACGT,-0.03 kcal/mol
9,CTTGTCACGTGGGGTT,0.03 kcal/mol
10,GTTTGCACGTGTATGG,0.08 kcal/mol
11,TCTATCACGTGGATGT,0.05 kcal/mol
12,TATTACACGTGTTCGG,0.15 kcal/mol
13,TTGTCCACGTGCAGTT,0.03 kcal/mol
14,GGGTCCACGTGGGAAA,0.15 kcal/mol
15,ATTTACACGTGGCGTG,-0.03 kcal/mol
16,ATACACACGTGTGGGG,0.03 kcal/mol
17,GTTTCCACGTGTTAGG,0.17 kcal/mol
18,AAGTACACGTGACGGG,0.25 kcal/mol
19,TAGGTCACGTGTTGCA,0.09 kcal/mol
20,TGTGACACGTGATTGA,0.19 kcal/mol
21,GTTATCACGTGGGAGT,0.13 kcal/mol
22,ATTTACACGTGGGGAC,-0.04 kcal/mol
23,GGGCGCACGTGCTGGT,-0.13 kcal/mol

row,Sequence,relative binding free energy
1,TTTAGCACGTGGTACT,-0.23 kcal/mol
2,GATCTCACGTGTGGTT,0.42 kcal/mol
3,ACAAGCACGTGTGGGT,-0.04 kcal/mol
4,GAGTTCACGTGAGGAT,0.61 kcal/mol
5,TCGTGCACGTGCCGGG,-0.08 kcal/mol
6,GGAGGCACGTGTCGCG,-0.15 kcal/mol
7,TATGACACGTGTAGGC,0.07 kcal/mol
8,GTGGGCACGTGTGCGT,-0.07 kcal/mol
9,ATAAGCACGTGAGGTT,0.16 kcal/mol
10,CTGGGCACGTGGTTGG,-0.07 kcal/mol
11,TTAGGCACGTGAAGGA,0.14 kcal/mol
12,TTTGTCACGTGAGGCC,0.33 kcal/mol
13,ATCAGCACGTGTGTTG,-0.14 kcal/mol
14,ATGGGCACGTGGGAGT,-0.16 kcal/mol
15,TTTCGCACGTGCGGCG,0.09 kcal/mol
16,TGATTCACGTGTTCAG,0.32 kcal/mol
17,TGTTGCACGTGAGCTG,0.18 kcal/mol
18,TGCTGCACGTGGGTAT,-0.12 kcal/mol
19,ATAGGCACGTGCTTGG,-0.26 kcal/mol
20,TTAGTCACGTGGCTAT,-0.06 kcal/mol
21,TGCGTCACGTGCGTGG,0 kcal/mol
22,TAGAGCACGTGTTGAA,-0.13 kcal/mol
23,AAGGCCACGTGGTTAT,-0.08 kcal/mol

row,Sequence,relative binding free energy
1,GGTTGCACGTGAGATG,0.28 kcal/mol
2,ATATGCACGTGATTGT,0.07 kcal/mol
3,ATAAGCACGTGGGCAG,-0.19 kcal/mol
4,TTTATCACGTGGGACG,0.21 kcal/mol
5,AAATGCACGTGGTCGG,-0.04 kcal/mol
6,TTCGGCACGTGGGTGG,-0.25 kcal/mol
7,TTTAGCACGTGGGTTC,-0.09 kcal/mol
8,TTAGTCACGTGATTAG,0.21 kcal/mol
9,TTATACACGTGTCTAG,0.11 kcal/mol
10,GTTTTCACGTGGTAGG,0.27 kcal/mol
11,TTTGTCACGTGATAGC,0.24 kcal/mol
12,CCATGCACGTGGTAGG,0.05 kcal/mol
13,AAGGTCACGTGTGTTT,0.25 kcal/mol
14,GGTAACACGTGTTGGG,0.05 kcal/mol
15,AGGGCCACGTGTTTGT,-0.15 kcal/mol
16,TGTTGCACGTGGTTCC,-0.08 kcal/mol
17,AACTGCACGTGTATGG,-0.01 kcal/mol
18,TTGCGCACGTGGAGGC,0.07 kcal/mol
19,AGTATCACGTGAGTTA,0.32 kcal/mol
20,TTTAGCACGTGTGAGC,0 kcal/mol
21,GGTCGCACGTGGGTAT,-0.18 kcal/mol
22,ACAATCACGTGTGTGG,0.15 kcal/mol
23,TGAGGCACGTGAGCAT,0.08 kcal/mol

row,Sequence,relative binding free energy
1,GGTTTCACGTGGTGTA,0.27 kcal/mol
2,TGTATCACGTGGGTAG,-0.04 kcal/mol
3,GGTAACACGTGTTCTG,0.13 kcal/mol
4,ATGGGCACGTGCTCTG,-0.12 kcal/mol
5,ACGATCACGTGGTGTT,0.03 kcal/mol
6,GTTGTCACGTGTACTC,0.28 kcal/mol
7,TTGTTCACGTGGGCCA,0.27 kcal/mol
8,GTTTTCACGTGCACTT,0.2 kcal/mol
9,GACAGCACGTGGTTGT,-0.09 kcal/mol
10,TGGATCACGTGCCGGT,0 kcal/mol
11,GATCACACGTGTGTGG,0.09 kcal/mol
12,GGCGACACGTGATGGT,0.29 kcal/mol
13,AGGGGCACGTGGCTGC,-0.18 kcal/mol
14,TGATGCACGTGGGATC,-0.01 kcal/mol
15,TTTTTCACGTGCGGAG,0.37 kcal/mol
16,GGCAGCACGTGGCGGC,-0.07 kcal/mol
17,TCATACACGTGAGGTG,0.1 kcal/mol
18,CTGGGCACGTGTTGAG,-0.1 kcal/mol
19,AGGGACACGTGGTGAC,-0.01 kcal/mol
20,AATATCACGTGATTAT,0.28 kcal/mol
21,TAGTGCACGTGTTAGC,0 kcal/mol
22,TTGTTCACGTGAGTGC,0.34 kcal/mol
23,GTGGTCACGTGCGATT,0.24 kcal/mol

row,Sequence,relative binding free energy
1,AGGGCCACGTGGGGGG,-0.24 kcal/mol
2,TTGGGCACGTGAATGT,0.18 kcal/mol
3,GAATTCACGTGGTAGG,0.49 kcal/mol
4,TGAATCACGTGCGGGC,0.34 kcal/mol
5,TACGTCACGTGTGAGG,-0.04 kcal/mol
6,AAAGTCACGTGAAAGT,0.35 kcal/mol
7,CGGTTCACGTGGATTT,0.43 kcal/mol
8,TACTGCACGTGCGGTG,-0.18 kcal/mol
9,TAGGTCACGTGGAGCG,0.18 kcal/mol
10,GCGGGCACGTGGTTAA,0.03 kcal/mol
11,GAGCTCACGTGGGGAG,0.25 kcal/mol
12,ATATACACGTGTCGTG,-0.05 kcal/mol
13,TGTTACACGTGGTGGA,0.07 kcal/mol
14,TGGTGCACGTGGCGAG,-0.1 kcal/mol
15,GACGGCACGTGTGTAG,0.04 kcal/mol
16,ACGTGCACGTGTGGTC,-0.01 kcal/mol
17,TGACTCACGTGGGGCT,0.04 kcal/mol
18,TGATACACGTGGAGTT,0.08 kcal/mol
19,TGATTCACGTGTGAAT,0.24 kcal/mol
20,GTGTTCACGTGGACAG,0.29 kcal/mol
21,TTGTTCACGTGGTCGA,0.3 kcal/mol
22,AGGGTCACGTGATTAA,0.14 kcal/mol
23,GTGATCACGTGTGGCC,0.25 kcal/mol
